Assay [1] has as its target GST–ARID1A–ARID domain (981–1140 aa) (UniProt O14497). Put plainly: pull-down; GST–ARID1A mutants or GST–ARID1B–ARM on Glutathione Sepharose beads incubated with HEK293 (methods: 293T) nuclear extract for 4 h at 4°C with RNase A and DNase I; bound proteins by immunoblot; only the target purified. In general terms: In western blotting, separated proteins are transferred to a membrane and probed.

The chains behind the UniProt entries cited, without tags or fusion partners. Where a name states a change or a piece, a line headed by the entry shows the natural chain unless it says otherwise. A line that says so, or that is headed by a name, gives the form on record, which may keep a tag or linker. Residues count along the entry.
GST–ARID1A–ARID domain (981–1140 aa) (O14497, residues 981-1140): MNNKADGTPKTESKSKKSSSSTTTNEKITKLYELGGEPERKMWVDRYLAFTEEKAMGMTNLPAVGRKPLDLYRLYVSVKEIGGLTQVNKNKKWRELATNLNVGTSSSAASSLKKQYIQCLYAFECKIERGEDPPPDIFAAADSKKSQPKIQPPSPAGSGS
GST–ARID1A–C-terminal region (1634–1913 aa) (O14497, residues 1634-1913): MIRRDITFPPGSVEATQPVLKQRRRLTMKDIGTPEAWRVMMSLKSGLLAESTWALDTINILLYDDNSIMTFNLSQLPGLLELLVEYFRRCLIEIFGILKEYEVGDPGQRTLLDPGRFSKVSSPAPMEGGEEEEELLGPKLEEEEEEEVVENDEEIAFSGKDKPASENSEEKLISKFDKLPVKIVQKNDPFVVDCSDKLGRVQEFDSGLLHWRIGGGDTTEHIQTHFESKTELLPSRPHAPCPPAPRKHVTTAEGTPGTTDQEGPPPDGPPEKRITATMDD
His–ARID1A–ARM domain (1914–2285 aa) (O14497, residues 1914-2285): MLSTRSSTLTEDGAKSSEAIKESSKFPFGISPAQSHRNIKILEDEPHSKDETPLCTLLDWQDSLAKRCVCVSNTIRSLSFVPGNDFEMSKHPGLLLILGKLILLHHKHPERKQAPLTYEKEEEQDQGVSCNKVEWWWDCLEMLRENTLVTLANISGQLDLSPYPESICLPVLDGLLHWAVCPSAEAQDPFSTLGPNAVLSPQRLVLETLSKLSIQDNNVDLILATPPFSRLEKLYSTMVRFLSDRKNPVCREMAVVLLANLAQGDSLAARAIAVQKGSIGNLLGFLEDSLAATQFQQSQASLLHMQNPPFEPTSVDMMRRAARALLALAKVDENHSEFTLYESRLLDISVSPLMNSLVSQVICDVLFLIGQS
UniProt P78527: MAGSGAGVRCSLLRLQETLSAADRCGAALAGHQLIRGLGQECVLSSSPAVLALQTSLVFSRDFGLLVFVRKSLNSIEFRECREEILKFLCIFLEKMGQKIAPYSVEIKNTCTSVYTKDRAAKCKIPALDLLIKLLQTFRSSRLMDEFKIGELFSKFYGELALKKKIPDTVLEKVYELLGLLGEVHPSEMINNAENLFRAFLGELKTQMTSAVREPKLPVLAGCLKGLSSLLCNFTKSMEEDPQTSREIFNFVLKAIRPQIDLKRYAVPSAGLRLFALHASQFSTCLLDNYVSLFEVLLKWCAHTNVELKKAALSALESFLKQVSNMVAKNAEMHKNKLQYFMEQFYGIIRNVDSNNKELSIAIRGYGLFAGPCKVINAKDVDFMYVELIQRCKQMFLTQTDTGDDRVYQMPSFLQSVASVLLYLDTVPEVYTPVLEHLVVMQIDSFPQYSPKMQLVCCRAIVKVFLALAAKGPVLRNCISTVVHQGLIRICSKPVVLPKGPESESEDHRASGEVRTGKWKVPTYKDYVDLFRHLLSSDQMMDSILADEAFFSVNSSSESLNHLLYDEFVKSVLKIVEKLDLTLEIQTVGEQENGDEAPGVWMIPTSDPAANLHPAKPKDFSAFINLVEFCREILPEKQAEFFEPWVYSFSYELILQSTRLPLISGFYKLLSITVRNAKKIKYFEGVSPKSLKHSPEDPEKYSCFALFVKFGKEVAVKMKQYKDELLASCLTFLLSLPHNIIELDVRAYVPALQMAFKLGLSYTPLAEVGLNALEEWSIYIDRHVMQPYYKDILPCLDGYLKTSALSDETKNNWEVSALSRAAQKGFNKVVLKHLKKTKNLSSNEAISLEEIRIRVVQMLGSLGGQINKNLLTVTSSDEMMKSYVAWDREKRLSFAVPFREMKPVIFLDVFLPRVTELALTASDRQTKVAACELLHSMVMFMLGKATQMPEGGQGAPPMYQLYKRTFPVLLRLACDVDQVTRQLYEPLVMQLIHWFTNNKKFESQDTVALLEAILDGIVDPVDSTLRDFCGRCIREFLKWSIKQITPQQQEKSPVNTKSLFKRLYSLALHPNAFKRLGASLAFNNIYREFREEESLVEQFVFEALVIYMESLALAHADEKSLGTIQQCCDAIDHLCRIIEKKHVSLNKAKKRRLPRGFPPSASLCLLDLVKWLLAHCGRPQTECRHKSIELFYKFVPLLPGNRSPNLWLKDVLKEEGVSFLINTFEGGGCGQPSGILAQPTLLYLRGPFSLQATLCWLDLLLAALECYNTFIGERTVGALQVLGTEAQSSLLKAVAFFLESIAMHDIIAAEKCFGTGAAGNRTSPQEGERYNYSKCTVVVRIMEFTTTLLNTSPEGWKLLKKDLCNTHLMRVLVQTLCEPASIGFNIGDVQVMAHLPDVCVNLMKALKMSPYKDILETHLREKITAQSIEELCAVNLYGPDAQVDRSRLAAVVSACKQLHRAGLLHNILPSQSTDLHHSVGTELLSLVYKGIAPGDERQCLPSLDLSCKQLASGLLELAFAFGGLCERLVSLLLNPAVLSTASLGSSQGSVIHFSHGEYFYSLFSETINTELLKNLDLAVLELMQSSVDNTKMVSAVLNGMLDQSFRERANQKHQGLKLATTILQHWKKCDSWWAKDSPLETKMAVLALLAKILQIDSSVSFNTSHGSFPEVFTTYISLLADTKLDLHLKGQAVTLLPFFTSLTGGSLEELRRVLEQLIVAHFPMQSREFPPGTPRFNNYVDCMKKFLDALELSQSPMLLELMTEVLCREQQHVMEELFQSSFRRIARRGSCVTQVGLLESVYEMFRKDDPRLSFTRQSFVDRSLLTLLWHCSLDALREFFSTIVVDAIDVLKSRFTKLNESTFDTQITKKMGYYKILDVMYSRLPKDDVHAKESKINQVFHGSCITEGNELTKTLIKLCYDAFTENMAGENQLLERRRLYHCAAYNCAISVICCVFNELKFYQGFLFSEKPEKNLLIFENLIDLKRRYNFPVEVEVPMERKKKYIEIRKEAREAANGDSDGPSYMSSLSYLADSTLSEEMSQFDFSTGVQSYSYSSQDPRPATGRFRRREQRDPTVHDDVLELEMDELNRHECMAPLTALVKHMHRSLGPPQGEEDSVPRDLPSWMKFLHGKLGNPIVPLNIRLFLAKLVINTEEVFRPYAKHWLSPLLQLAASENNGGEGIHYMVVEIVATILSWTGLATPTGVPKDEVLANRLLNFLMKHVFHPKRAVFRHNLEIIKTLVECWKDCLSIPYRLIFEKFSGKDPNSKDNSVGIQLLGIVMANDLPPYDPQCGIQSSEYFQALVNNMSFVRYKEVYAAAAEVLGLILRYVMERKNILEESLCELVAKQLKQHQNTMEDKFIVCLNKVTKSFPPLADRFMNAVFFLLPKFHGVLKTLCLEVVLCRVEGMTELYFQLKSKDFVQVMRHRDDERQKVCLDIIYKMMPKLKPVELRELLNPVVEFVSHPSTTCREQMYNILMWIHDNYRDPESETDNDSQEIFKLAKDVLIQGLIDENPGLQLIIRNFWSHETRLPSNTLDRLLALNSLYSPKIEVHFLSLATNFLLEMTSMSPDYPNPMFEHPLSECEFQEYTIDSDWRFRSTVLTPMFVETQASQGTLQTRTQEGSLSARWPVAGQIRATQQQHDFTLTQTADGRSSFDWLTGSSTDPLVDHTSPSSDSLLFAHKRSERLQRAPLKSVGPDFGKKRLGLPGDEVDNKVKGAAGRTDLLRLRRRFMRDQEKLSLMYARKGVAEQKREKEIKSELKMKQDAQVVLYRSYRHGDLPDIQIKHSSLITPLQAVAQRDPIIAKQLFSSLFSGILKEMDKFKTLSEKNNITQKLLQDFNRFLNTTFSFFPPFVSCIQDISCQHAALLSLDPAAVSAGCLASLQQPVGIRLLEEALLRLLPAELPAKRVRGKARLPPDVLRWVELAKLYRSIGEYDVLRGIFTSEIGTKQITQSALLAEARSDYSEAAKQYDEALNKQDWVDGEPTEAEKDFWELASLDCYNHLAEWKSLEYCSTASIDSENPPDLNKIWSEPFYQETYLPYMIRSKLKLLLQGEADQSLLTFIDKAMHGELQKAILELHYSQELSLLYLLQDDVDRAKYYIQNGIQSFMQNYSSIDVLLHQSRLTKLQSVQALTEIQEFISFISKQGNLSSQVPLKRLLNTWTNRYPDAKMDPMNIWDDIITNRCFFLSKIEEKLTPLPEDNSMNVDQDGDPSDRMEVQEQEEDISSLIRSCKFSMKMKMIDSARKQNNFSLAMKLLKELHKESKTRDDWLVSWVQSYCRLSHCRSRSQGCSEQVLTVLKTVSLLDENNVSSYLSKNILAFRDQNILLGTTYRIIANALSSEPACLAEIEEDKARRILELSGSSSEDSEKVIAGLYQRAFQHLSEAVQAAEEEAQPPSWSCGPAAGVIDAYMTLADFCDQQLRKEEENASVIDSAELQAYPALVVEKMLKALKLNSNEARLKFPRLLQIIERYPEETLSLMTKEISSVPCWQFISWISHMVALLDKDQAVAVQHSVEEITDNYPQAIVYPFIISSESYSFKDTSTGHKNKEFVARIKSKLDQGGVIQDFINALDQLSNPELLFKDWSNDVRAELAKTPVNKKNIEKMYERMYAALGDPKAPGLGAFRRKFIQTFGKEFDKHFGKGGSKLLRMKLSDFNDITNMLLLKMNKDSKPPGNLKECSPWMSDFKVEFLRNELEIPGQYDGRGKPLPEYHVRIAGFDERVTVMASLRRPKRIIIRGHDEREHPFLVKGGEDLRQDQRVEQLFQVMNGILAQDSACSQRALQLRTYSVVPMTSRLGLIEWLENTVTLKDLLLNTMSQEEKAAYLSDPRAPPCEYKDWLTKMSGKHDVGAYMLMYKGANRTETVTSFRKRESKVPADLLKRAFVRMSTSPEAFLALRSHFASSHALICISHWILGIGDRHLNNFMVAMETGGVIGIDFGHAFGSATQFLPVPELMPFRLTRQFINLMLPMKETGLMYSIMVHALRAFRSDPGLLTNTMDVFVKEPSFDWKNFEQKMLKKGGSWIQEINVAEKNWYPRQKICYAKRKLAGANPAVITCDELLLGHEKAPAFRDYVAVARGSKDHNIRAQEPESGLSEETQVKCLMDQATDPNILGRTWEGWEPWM
GST–DNA–PKcs ARID1A-binding region (3615–3660 aa), F3640A mutant (P78527, form named): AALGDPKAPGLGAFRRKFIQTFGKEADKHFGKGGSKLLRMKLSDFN

The target in assay [2] is GST–ARID1A–ARM domain (1914–2285 aa) (UniProt O14497). The description is as above.
Assay [3] deals with GST–ARID1A–C-terminal region (1634–1913 aa) (UniProt O14497). Described as above.
Assay [4] deals with ARID1B, endogenous (human (endogenous in HEK293)) (UniProt Q8NFD5). Put plainly: co-IP; endogenous ARID1A or ARID1B immunoprecipitated with anti-ARID1A or anti-ARID1B from HEK293 nuclear extract; partners by immunoblot.
Assay [5] deals with GST–DNA–PKcs ARID1A-binding region (3615–3660 aa), F3640A mutant (UniProt P78527). Kind of assay: far-Western, overlay or dot blot; GST-fusion proteins separated by SDS–PAGE, transferred to PVDF, renatured through falling guanidine–HCl, incubated with His–ARID1A–ARM overnight at 4°C, probed with anti-His-tag antibody; both purified.

No constants are given. Whether binding was seen depends on the method and setting. For part of these data: In cells and extracts the contact can be indirect. Some results given as binding are weak or reduced against the parent protein; the word gives no strength.

In the case of “DNA-dependent protein kinase catalytic subunit (DNA-PKcs), endogenous wild type (from UniProt P78527 1-4128)”, the binding entry is listed as “binds weakly” in assay [1], “binds” in assay [2], “binds weakly” in assay [3] and “binds” in assay [4].

Regarding “His–ARID1A–ARM domain (1914–2285 aa) (from UniProt O14497 1914-2285) (domain or fragment)”, the binding result in assay [5] is “no binding”.

For the substance VIRMA (from UniProt Q69YN4 1-1812), in assay [1], the binding result is listed as “binds”.
